These results are taken from publication PMC4336329 (PLoS ONE, 2015).

The campaign covered roughly 310,000 compounds. About 14,000 (4.5%) showed an effect of 50% or more. Effects have a minus sign here. The list shows a part of the results.
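Further: peak tail current of the secondary pulse compared with the same well before compound.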

Sequence of human ether-à-go-go-related gene (hERG) potassium channel (Q12809 whole entry, looked up): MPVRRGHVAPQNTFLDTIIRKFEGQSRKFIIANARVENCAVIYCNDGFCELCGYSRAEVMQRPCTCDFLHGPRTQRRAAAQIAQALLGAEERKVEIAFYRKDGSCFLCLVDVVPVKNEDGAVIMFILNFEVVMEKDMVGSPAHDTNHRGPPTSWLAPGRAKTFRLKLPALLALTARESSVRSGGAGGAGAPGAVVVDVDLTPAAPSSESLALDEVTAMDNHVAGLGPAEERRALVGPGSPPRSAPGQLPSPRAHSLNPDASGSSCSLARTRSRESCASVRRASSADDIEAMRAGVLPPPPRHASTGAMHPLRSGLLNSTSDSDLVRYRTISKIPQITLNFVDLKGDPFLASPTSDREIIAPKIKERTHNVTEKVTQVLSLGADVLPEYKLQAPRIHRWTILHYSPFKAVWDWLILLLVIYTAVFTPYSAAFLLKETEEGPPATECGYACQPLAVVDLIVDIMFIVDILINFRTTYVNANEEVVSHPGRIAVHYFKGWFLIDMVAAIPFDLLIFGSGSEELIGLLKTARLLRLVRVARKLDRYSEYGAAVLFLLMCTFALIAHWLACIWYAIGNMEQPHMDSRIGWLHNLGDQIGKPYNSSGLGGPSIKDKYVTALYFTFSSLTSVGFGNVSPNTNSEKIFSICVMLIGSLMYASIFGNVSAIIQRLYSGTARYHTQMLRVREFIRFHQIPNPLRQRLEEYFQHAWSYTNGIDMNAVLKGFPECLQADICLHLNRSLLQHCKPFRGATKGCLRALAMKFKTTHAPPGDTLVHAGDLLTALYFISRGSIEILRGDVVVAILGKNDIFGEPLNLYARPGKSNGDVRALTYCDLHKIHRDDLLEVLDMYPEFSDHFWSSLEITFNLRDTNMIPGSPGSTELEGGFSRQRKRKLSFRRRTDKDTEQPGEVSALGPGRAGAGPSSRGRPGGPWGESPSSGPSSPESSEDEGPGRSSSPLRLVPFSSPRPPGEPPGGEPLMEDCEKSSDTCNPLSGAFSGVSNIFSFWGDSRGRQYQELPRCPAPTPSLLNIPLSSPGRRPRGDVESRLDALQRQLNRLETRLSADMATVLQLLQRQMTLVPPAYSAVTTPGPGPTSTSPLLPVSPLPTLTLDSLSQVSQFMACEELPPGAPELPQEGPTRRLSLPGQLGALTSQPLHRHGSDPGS

The experiment addresses human ether-à-go-go-related gene (hERG) potassium channel (human, UniProt Q12809). Put plainly: primary screen, population patch clamp on CHO cells stably expressing hERG.
In the case of `Cc1cc(OC2CCCCC2)nc(NCc2ccccc2)n1`, the “hERG current change (%, negative = inhibition) at 10uM” value was determined as 1.82%.
For the molecule `Cc1ccc(S(=O)(=O)N(C)/N=C2/C(=O)N(CC(=O)O)c3ccccc32)cc1`, the “hERG current change (%, negative = inhibition) at 10uM” value was found to be 27.7%.
Regarding `Cc1cccc2sc(NC(=O)CCn3cccc3)nc12`, the “hERG current change (%, negative = inhibition) at 10uM” value is listed as 1.51%.
For `Cc1ccccc1OCC(=O)OCC(=O)c1ccc(OCc2ccccc2)cc1` the value was 23.9%; for `COc1cccc(/C=N/NC(=O)c2ccc(=O)[nH]n2)c1O`, 15.2%.
Take `COCCCNC(=O)CCc1c(C)nc2c(c(C)nn2-c2ccccc2)c1C`: the “hERG current change (%, negative = inhibition) at 10uM” value was -1.85%.
As for `COc1ccc(/C=N/NC(=O)COc2cccc3ccccc23)c(C(=O)O)c1OC`, the figure is -1.07%.
As for `COc1ccc(CC2(CO)CCN(CC3=Cc4cc(Cl)ccc4OC3)CC2)cc1`, the figure is -58.3%; as for `Cc1nn(-c2ccc(N3CCOCC3)nn2)c(C)c1CCC(=O)NCc1ccccc1F`, 8.51%.
As for `CCn1nc(C)cc1-c1nnc(Sc2ncc([N+](=O)[O-])s2)n1C`, the figure is -19.8%; as for `CC(=C\c1ccccc1)/C=C1/SC(=S)N(CCC(=O)Nc2ccccn2)C1=O`, 27.6%.
Turning to `COc1ccc2c(c1)C(=O)N(c1ccccc1C)C(=O)C2(C)C`, the “hERG current change (%, negative = inhibition) at 10uM” value worked out at 1.78%.
As for `CC(C)COc1ccc(C(=S)N2CCCC2)cc1`, the figure is -11.5%; as for `Cc1cccc(C(=O)NNC(=O)c2ccc(NS(=O)(=O)c3cccs3)cc2)c1C`, 0.0304%; as for `C=CCn1c(SCC(=O)NC23CC4CC(CC(C4)C2)C3)nc2cc(C(=O)O)ccc2c1=O`, 23.3%.
As for `COc1cc(SC)ccc1C(=O)OCC(=O)NC(=O)NC(C)C`, the figure is -0.076%; as for `O=C(COc1ccc2ccccc2c1Br)NCc1ccccn1`, -2.3%; as for `Cc1cccc(N=CC=C2OC(C)(C)C(C)(C)O2)c1`, 3.43%.
For the molecule `OCCCNc1cc(-c2ccccc2)nc2cc(-c3ccc(F)cc3)nn12`, the “hERG current change (%, negative = inhibition) at 10uM” value was found to be 1.51%.
As for `Cc1cccc(C(=O)Nc2ccccc2NC(=O)c2cccc(C)c2)c1`, the figure is 8.24%.
For `O=C1CCN(CCc2ccccc2)CCN1[C@H](CSc1ccccc1)Cc1ccccc1` the value was -77.1%; for `O=C(OCc1nnc(-c2ccccc2)o1)c1cc(S(=O)(=O)N2CCOCC2)ccc1F`, 5.79%; for `CN(c1ccccc1C(=O)Nc1ccc(S(=O)(=O)N2CCCCC2)cc1)S(C)(=O)=O`, 0.441%.
Regarding `COc1cccc(CNC(=O)CCCn2ncn3c(cc4occc43)c2=O)c1`, the “hERG current change (%, negative = inhibition) at 10uM” value is reported as -42.9%.
As for `C=C(C)C1CC=C(C)/C(=N\NC(=O)CNc2cccc3ccccc23)C1` (stereo not shown), the figure is 9.77%; as for `COC(=O)c1c(-c2ccc(F)cc2)noc1N`, -42.3%; as for `CC1c2ccsc2CCN1S(=O)(=O)c1ccccc1` (stereo not shown), -18.6%.
As for `COc1cc2c(cc1OC)CN(C(=O)Cn1ccccc1=O)CC2`, the figure is -2.11%; as for `COc1cccc(N2CC(C(=O)Nc3nnc(SCC(=O)N4CCOCC4)s3)CC2=O)c1` (stereo not shown), 18.1%; as for `O=C(Nc1ccncc1)c1ccccc1F`, 7.13%.
For `CN(C)C(=O)CN1C(=O)C2CC=C(Cl)CC2C1=O` (stereo not shown) the value was 4.94%.
Take `O=C(Cn1ncc2c3ccccc3n(Cc3cccc(Cl)c3)c2c1=O)N1CCC2(CC1)OCCO2`: the “hERG current change (%, negative = inhibition) at 10uM” value is recorded as -69%.
For `O=C(NCCc1ccccc1)Nc1ccc2c(c1)OCO2` the value was 15.5%; for `Cc1c(C(=O)N2CCCCC2CCN2CCCC2=O)oc2c(F)cccc12` (stereo not shown), 2.28%; for `CN(CC(=O)Nc1ccccc1C(F)(F)F)C(=O)Cc1ccccc1F`, 10.2%.
For `COCCCNC(=S)Nc1ccc(C)cc1` the value was 7.37%; for `CCCn1c(SCc2nc(-c3cccs3)no2)nnc1-c1ccncc1`, -4.13%.
For `O=C(c1cnn2c(C(F)(F)F)cc(-c3cccs3)nc12)N1CCCC1` the value was -8.48%; for `COc1ccc2[nH]c3c(=O)n(CCCCC(=O)NCCC(C)C)c(=S)[nH]c3c2c1`, 16.3%.
For the molecule `CC(C)(C)c1ccc(-c2nnc(SC3CCOC3=O)n2Cc2ccccc2)cc1` (stereo not shown), the “hERG current change (%, negative = inhibition) at 10uM” value is given as -33.1%.
For `CCC(=O)Oc1ccc(NC(=O)CSCc2ccccc2)cc1` the value was 6.81%; for `O=C(Nc1ccon1)c1ccccc1Cl`, 10.6%; for `O=C(CCNS(=O)(=O)c1ccc(Cl)cc1)N1CCN(c2ccccn2)CC1`, -41.5%.
